Results: paper PMC4336329 (PLoS ONE, 2015)
In all, about 310,000 compounds went through this assay and about 14,000 (4.5%) showed an effect of 50% or more. The effect is printed as a negative number. The list shows a part of the results.

Each compound was assayed against human ether-à-go-go-related gene (hERG) potassium channel (human, UniProt Q12809) (assay: primary screen, population patch clamp on CHO cells stably expressing hERG).
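Also: peak tail current of the secondary pulse compared with the same well before compound.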

Chain of human ether-à-go-go-related gene (hERG) potassium channel (Q12809 whole entry, looked up): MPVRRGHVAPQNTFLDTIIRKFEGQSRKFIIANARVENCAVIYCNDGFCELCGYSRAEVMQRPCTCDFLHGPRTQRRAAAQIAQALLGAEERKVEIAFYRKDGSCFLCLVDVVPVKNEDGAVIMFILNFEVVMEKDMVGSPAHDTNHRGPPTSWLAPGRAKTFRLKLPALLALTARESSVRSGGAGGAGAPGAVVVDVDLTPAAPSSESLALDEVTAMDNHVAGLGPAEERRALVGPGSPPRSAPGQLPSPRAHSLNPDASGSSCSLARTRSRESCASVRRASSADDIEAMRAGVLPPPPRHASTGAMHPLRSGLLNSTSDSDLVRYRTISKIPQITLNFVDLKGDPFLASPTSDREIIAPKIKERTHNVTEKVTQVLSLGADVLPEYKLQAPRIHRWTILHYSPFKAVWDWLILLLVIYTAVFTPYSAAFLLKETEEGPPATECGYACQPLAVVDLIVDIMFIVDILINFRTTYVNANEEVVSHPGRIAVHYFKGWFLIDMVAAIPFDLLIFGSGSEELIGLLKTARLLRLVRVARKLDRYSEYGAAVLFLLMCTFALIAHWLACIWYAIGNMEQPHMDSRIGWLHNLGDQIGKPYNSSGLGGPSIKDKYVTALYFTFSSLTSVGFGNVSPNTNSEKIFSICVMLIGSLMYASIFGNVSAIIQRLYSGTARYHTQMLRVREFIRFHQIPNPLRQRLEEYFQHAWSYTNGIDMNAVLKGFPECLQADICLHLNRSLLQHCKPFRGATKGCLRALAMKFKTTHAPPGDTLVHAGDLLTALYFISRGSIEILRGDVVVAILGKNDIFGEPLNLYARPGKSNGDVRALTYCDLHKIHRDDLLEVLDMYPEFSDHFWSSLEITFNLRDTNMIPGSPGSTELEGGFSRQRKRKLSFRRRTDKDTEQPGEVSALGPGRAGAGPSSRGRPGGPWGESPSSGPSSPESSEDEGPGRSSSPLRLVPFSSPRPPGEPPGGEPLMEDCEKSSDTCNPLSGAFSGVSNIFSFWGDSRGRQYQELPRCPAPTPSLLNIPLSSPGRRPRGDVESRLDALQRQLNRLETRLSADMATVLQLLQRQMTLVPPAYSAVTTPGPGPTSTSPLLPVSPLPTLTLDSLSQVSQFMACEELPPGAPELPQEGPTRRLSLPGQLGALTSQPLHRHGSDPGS

In order of rising “hERG current change (%, negative = inhibition) at 10uM” value:
1. O=C(NCc1ccccc1)C1=C[C@@H](c2csc3ccccc23)C[C@@H](OCCCCO)O1  -69%
2. O=C(c1cnn(-c2ccccc2)c1-n1cccc1)N1CCN(C2CCCCC2)CC1  -67.2%
3. Cc1ccc(NC(=O)C(=O)NCc2ccc(/C=N/NC(=O)c3c(C)nc4cc(C)ccn34)o2)cc1  -64%
4. Cc1c(CN2CCC(CO)(Cc3cccc(C(F)(F)F)c3)CC2)c2ccccc2n1C  -47.2%
5. O=C(N/C(=C\c1ccccc1)C(=O)N1CCN(CCO)CC1)c1ccccc1  -42.9%
6. Cc1cccc(S(=O)(=O)N(CC(=O)Nc2ccccc2C)Cc2ccco2)c1  -40.7%
7. Cc1ccc(S(=O)(=O)c2nc(S(=O)(=O)c3ccccc3)sc2N2CCN(CCO)CC2)cc1  -40.6%
8. Cn1nnc(NC(=O)COc2ccc(C3CCCCC3)cc2)n1  -36.4%
9. C=CCn1c(N)cc(=O)nc1SCC(=O)Nc1ccc(C(=O)OC)cc1  -21%
10. CC(C)n1c(=O)c2c(O)cc(=O)oc2c2ccccc21  -20.7%
11. Cc1nn(-c2ccccc2)c(C)c1-c1cc(C(=O)N/N=C/c2cccnc2)[nH]n1  -18.7%
12. CCOC(=O)/C(=N\Nc1cc(Cl)ccc1Cl)N1CCN(C)CC1  -16.9%
13. CCOC(=O)c1c(-c2ccccc2)cn2ccccc12  -16.5%
14. CCCNC(=O)c1onc(CSc2ccc(F)cc2)c1C(=O)NCCOC  -14.6%
15. Cc1ccc(C(C)(C)C)cc1S(=O)(=O)N1CC(=O)Nc2ccccc21  -14.3%
16. CC1(C)CC(=O)C(C=Nc2ccc3[nH]ncc3c2)=C(O)C1  -12.3%
17. O=C(CN1C(=O)c2ccccc2C1=O)OCC(=O)c1ccccc1  -11%
18. CC(=O)O[C@H]1CC[C@@]2(C)C(CCC3C2CC[C@]2(C)OC(=O)CCC32)C1 (stereo partly drawn)  -10.7%
19. Cc1ccc(S(=O)(=O)N(C)CC(=O)OCC(=O)NCCN2C(=O)CSC2=O)cc1  -9.67%
20. CCN(CC)C(=O)CNC(=O)Cc1ccc(Cl)cc1  -9.62%
21. Cc1noc(C)c1-c1ccc2nc[nH]c(=O)c2c1  -9.5%
22. CCOc1ccccc1NC(=O)N1CCCC1C(=O)Nc1nnc(CC)s1 (stereo not drawn)  -9.09%
23. COc1ccc(N2C(=O)CSC2c2ccc3c(c2)OCO3)cc1 (stereo not drawn)  -8.17%
24. CCOC(=O)CC(Nc1nc(N2CCOCC2)nc(N2CCOCC2)n1)c1ccccc1Cl (stereo not drawn)  -5.21%
25. COc1ccc(CCNC(=O)c2coc3ccccc3c2=O)cc1OC  -4.09%
26. CC(=O)NCCc1ccc(S(=O)(=O)NC2OC(=O)c3ccccc32)cc1 (stereo not drawn)  -3.77%
27. CCn1c(COc2ccccc2OC)nnc1SCC#N  -3.43%
28. N#CCCN(C(=O)CSc1ccc2c(c1)OCCO2)c1ccccc1  -2.35%
29. Cc1ccc2c(c1)N(CC(=O)N1CCCCCC1)C(=O)c1cccnc1O2  -2.14%
30. CSc1ncc(Cl)c(C(=O)Nc2ccc(S(=O)(=O)N3CCOCC3)cc2)n1  -1.86%
31. O=C(N/N=C/c1ccncc1)c1nn(Cc2ccccc2)c(=O)c2ccccc12  -0.0913%
32. COC(=O)c1cccc(NC(=O)Cn2nnc3ccccc32)c1  0.234%
33. Cc1nn(Cc2ccccc2Cl)c(C)c1C(=O)OCC(=O)N1CC(C)OC(C)C1 (stereo not drawn)  1.43%
34. COc1cccc(NC(=O)COC(=O)c2c(F)cccc2Cl)c1  1.71%
35. O=C(CNC1CCCCC1)Nc1ccc(S(=O)(=O)N2CCCCC2)cc1  2.13%
36. Cc1cccc(NC(=O)C(C)Sc2nnc(-c3cccnc3)o2)c1 (stereo not drawn)  3.15%
37. CCOc1c(Br)cc(C2NC(=O)CCC2[N+](=O)[O-])cc1OC (stereo not drawn)  4.34%
38. CC(=O)N1CCN(C(=O)c2ccc(S(=O)(=O)Nc3cccc(C(F)(F)F)c3)cc2)CC1  4.85%
39. Cc1ccc(CSc2nnc(C)c(=O)n2N)cc1  5.84%
40. CCOC(=O)Cc1csc(N/N=C/c2cccc([N+](=O)[O-])c2)n1  6.24%
41. Cc1sc2nc(-c3ccco3)oc(=O)c2c1C  6.66%
42. O=C(CCn1c(=S)oc2ccccc21)Nc1cccc(F)c1  8.26%
43. C=CCn1c(Cc2c[nH]c3ccccc23)n[nH]c1=S  10.8%
44. COc1cccc(NC(=O)c2cccnc2)c1  11.2%
45. CCCCCN1CC(O)=C(c2nc3ccccc3[nH]2)C1=N  11.8%
46. CC(C)C(=O)Nc1cccc2nsnc12  12.6%
47. Cc1ccc(C)c(S(=O)(=O)ON2C(=O)c3ccccc3C2=O)c1  14%
48. CC(C)CC(O)(c1ccccc1)C(CN1CCOCC1)c1ccccc1.Cl (stereo not drawn)  14.7%
49. Cc1nc2nc(SCC(N)=O)[nH]c2cc1Br  15.9%
50. O=C(CCSc1nnc2ccccn12)Nc1ccc2c(c1)OCO2  16.3%
51. Cc1ccsc1C(=O)NNC(=S)NC1CCCCC1  17.2%
52. O=C(CS(=O)c1ccc(C(F)(F)F)cc1[N+](=O)[O-])Oc1ccccc1 (stereo not drawn)  17.2%
53. CCCc1cc(=O)oc2c3c(cc(OCC(=O)N[C@@H](CSC)C(=O)O)c12)OC(C)(C)CC3  17.3%
54. COc1ccc(CCN2C(=O)N[C@@H](CCC(=O)O)C2=O)cc1  19%
55. O=C(O)c1ccc(S(=O)(=O)N2CCN(c3ccccn3)CC2)cc1  19.3%
56. CC1(C)Cc2c(sc3[nH]c(=O)n(CC(=O)NCC4CCCO4)c(=O)c23)CO1 (stereo not drawn)  20.5%
57. COCCNC(=O)C1=NOC(Cn2cc(C#N)c(=O)n(C)c2=O)C1 (stereo not drawn)  34.2%
